These results are taken from ChEMBL document CHEMBL4888484, “Replenishing the malaria drug discovery pipeline: Screening and hit evaluation of the MMV Hit Generation Library 1 (HGL1) against asexual blood stage Plasmodium falciparum ,using a nano luciferase reporter read-out” (2022).

About 540 (0.36%) of roughly 150,000 compounds showed an effect of 50% or more. This is one part of the list.

The test has as its system Plasmodium falciparum. As to the kind of experiment: Primary screen in NF54 nanoGlo assay, in single point, at 2uM, 72h; a lower Z score goes with more inhibition. The class given is functional, Erythrocyte. The following applies: timepoint 72 hour.
`O=C1CCN(S(=O)(=O)c2ccc3c(c2)OCCO3)CCCCCCN1`: the “% Inhibition” value stood at 4% and the Z score is recorded as -0.48.
For `CC(C)(C)OC(=O)N/N=C(\Cc1ccccc1)NC1CCCC1`, the “% Inhibition” value worked out at 0% and the Z score is 0.
For `Cc1ccc(C(=O)Nc2ncc(Cc3ccc(F)c(F)c3F)s2)cn1` the same measures were 3% and -0.56.
For the compound `CN1CCC(C(=O)Nc2nc3c(s2)C[C@@H](NC(=O)OC(C)(C)C)CC3)CC1=O` (stereo partly specified), the “% Inhibition” value was -12% and the Z score is reported as 1.42.
As to `C[C@@H]1CN(C(=O)Nc2cnns2)C[C@H](C)O1`, the “% Inhibition” value is given as 3% and the Z score is -0.4.
For `CCN1CCC(CNC(=O)c2ccc3[nH]c4c(c3c2)CCCC4)CC1`, the “% Inhibition” value is on record as -3% and the Z score is 0.33.
Turning to `CC(C)[C@@H](O)CN1CCn2c(Cc3ccccc3F)nnc2C1`, the “% Inhibition” value is listed as 3% and the Z score is on record as -0.49.
`COc1ccccc1CNC[C@H]1CCCc2ccc(C(=O)O)cc21`: the “% Inhibition” value is on record as -2% and the Z score is 0.43.
As to `O=C1CC[C@@H]2CN(c3ccnc4ccccc34)CC[C@@H]2N1CCCCO`, the “% Inhibition” value is reported as 4% and the Z score is -0.73.
With `COc1ccc(S(=O)(=O)N2CC(S(=O)(=O)Cc3ccco3)C2)cc1Cl`, the “% Inhibition” value was -18% and the Z score turned out to be 2.26.
For `O=S(=O)(Cc1ccccc1)NCC1CCN(c2ncccn2)CC1` the same measures were -2% and 0.39.
Regarding `COc1ccnc(NC(=O)Cc2cccs2)c1`, the “% Inhibition” value is 5% and the Z score is recorded as -0.55.
For the compound `CCc1noc(C)c1CN1CCOc2ccccc2[C@@H]1C(=O)O`, the “% Inhibition” value turned out to be 5% and the Z score was -0.92.
`COc1ccccc1NC(=O)OCC#CCOC(=O)Nc1ccccc1OC`: the “% Inhibition” value was -2% and the Z score came out at 0.32.
Regarding `CC12CCN(c3ncccn3)CC1C2(F)F` (stereo unspecified), the “% Inhibition” value was 1% and the Z score was -0.28.
Consider `Cc1nnc(N2CCN(Cc3cnc(-c4ccccc4)o3)CC2)n1C`, for which the “% Inhibition” value was -3% and the Z score was 0.44.
On to `Cc1oncc1CNS(=O)(=O)c1c2c(nn1C)CCCC2`, for which the “% Inhibition” value is reported as -5% and the Z score came out at 0.8.
In the case of `COc1ccc(CNC(=O)c2cc(-c3ccc(OC)cc3)ns2)cc1`, the “% Inhibition” value is recorded as -5% and the Z score worked out at 0.65.
Turning to `O=C(NC1CCCCC1)N[C@H]1[C@H](O)[C@@H](N2CCN(c3ccccc3)CC2)[C@@H]2OC[C@H]1O2`, the “% Inhibition” value was 8% and the Z score is -0.94.
`Cc1c(C(=O)N2CCN(c3ccccc3F)C[C@@H]2C)cnn1C1CCCC1`: the “% Inhibition” value was -1% and the Z score was found to be 0.1.
For the compound `c1ccc2c(CNCCc3c[nH]c4ccccc34)c3ccccc3cc2c1`, the “% Inhibition” value was found to be 6% and the Z score is on record as -0.71.
For `CCc1ccc(S(=O)(=O)c2c(C(=O)N3CCCC3)cnc3ccc(C)cc23)cc1` the same measures were -6% and 1.08.
As to `CC[C@H]1CCCCN1Cc1cc2ccc(F)cc2n(Cc2ccncc2)c1=O`, the “% Inhibition” value came to 15% and the Z score is given as -1.87.
Consider `N#C[C@H]1CCCN(c2ncnc3c2CCN(C(=O)c2ccco2)CC3)C1`, for which the “% Inhibition” value is listed as -8% and the Z score came out at 1.01.
Take `CC1CCC(C)(NC(=O)c2cc3c([nH]c2=O)CCCC3=O)CC1` (stereo unspecified): the “% Inhibition” value turned out to be 1% and the Z score is -0.13.
For `COc1cc(N[C@@H](Cn2ccnc2)C(C)C)ncn1` the same measures were 3% and -0.27.
With `CCN(CCO)C(=O)C[C@]1(c2ccccc2)CC(=O)N(Cc2ccc3c(c2)OCO3)C1=O`, the “% Inhibition” value came to 5% and the Z score is -0.64.
As to `C[C@H]1Cc2ccccc2N1C(=O)c1cn(CCN(C)C)c2ccccc12`, the “% Inhibition” value is given as -14% and the Z score is recorded as 1.99.
With `Nc1c(N2CCCC2)c(=O)n(CC(=O)Nc2ccc(Br)cc2)c(=O)n1Cc1ccccc1`, the “% Inhibition” value is reported as -5% and the Z score came out at 0.63.
On to `COc1ccc(S(=O)(=O)c2cnc(N3CCN(C4CCCCC4)CC3)nc2N)cc1`, for which the “% Inhibition” value was -4% and the Z score was 0.66.
With `Cc1nc2c(N)c(Cl)c(Cl)c(N)c2[nH]1`, the “% Inhibition” value is -6% and the Z score is reported as 0.79.
With `Cc1ccccc1-c1cnc(NC(=O)NCC2CCC(O)C2)s1` (stereo unspecified), the “% Inhibition” value is recorded as -13% and the Z score is given as 1.4.
Regarding `Cc1nc(C)n(CC2CCCCN2CC2CCCCO2)n1` (stereo unspecified), the “% Inhibition” value is reported as -7% and the Z score turned out to be 0.76.
In the case of `CC[C@H](NCc1c(C)cc(C)c(COC(C)=O)c1C)c1ccnn1C`, the “% Inhibition” value was determined as 0% and the Z score turned out to be 0.04.
As to `Cc1ccc(-c2cc(C(=O)N3CCC[C@@](F)(c4nc(C5CC5)no4)C3)[nH]n2)cc1C`, the “% Inhibition” value turned out to be 5% and the Z score is given as -0.65.
For `C[C@H](NC(=O)NCc1nc(C(C)(C)C)co1)c1cncc(F)c1`, the “% Inhibition” value amounted to 9% and the Z score is reported as -1.09.
For the compound `Cc1cc(=O)c(CO)nn1Cc1nc2c(s1)C(C)(C)CC(C)(C)C2`, the “% Inhibition” value is -5% and the Z score came to 0.57.
For `Cc1nsc(N2CC(CC(F)F)C2)n1` the same measures were -11% and 1.37.
Take `CCNc1ncc([C@@H]2C[C@H](NC(C)=O)C[C@H](c3ccc(Cl)cc3)O2)cn1`: the “% Inhibition” value is reported as -4% and the Z score is given as 0.65.
For `CCOCCCC(=O)NC1(C)CN(C(=O)OC)C1` the same measures were -10% and 1.23.
For `CN(CCc1ccccc1)[C@@H](C(=O)O)c1ccc(N)c(F)c1` the same measures were 1% and -0.3.
On to `N=C(NOC(=O)Cc1ccccc1)c1ncon1`, for which the “% Inhibition” value stood at 3% and the Z score was -0.55.
In the case of `CCC(=O)Nc1ccccc1-c1nc2ccccc2n(CC(=O)Nc2c(C)cccc2C)c1=O`, the “% Inhibition” value is -1% and the Z score was determined as 0.22.
With `Cc1c(CC(=O)NC2CCCC2)c2c(n1C[C@H]1CCCO1)CCCC2=O`, the “% Inhibition” value is listed as -2% and the Z score was 0.32.
As to `O=C(N[C@H]1CCc2nccn2C1)C1CCOCC1`, the “% Inhibition” value is given as -11% and the Z score came out at 1.7.
For `OC1(c2cn(Cc3cn4cccnc4n3)nn2)CCCCC1` the same measures were 13% and -1.7.
For `Oc1nc2ccccc2nc1N1CCCCC1` the same measures were 3% and -0.4.
In the case of `CO[C@@H](C)c1nsc(N[C@H]2CC[C@H](NC(=O)c3cc(C)on3)CC2)n1`, the “% Inhibition” value turned out to be 3% and the Z score is listed as -0.43.
For `CCOc1cc(C(=O)N[C@@](C)(CC)c2nc(C)cs2)on1` the same measures were -5% and 0.55.
For `CO[C@H]1COCC[C@@H]1NC(=O)c1ccc(Cl)c(Cl)c1`, the “% Inhibition” value is -11% and the Z score is reported as 1.16.
For the compound `CC(C)CC1NC(=O)C(C)NC(=O)C(CC(C)C)OC(=O)CCCNC1=O` (stereo unspecified), the “% Inhibition” value is recorded as -3% and the Z score is given as 0.52.
As to `COc1cccc(Cn2nnc3cc(C(=O)Nc4ccc5c(c4)OCO5)ccc32)c1`, the “% Inhibition” value was determined as 0% and the Z score is on record as 0.03.
On to `Clc1cccc(-n2cc(-c3noc(-c4cccnc4)n3)nn2)c1`, for which the “% Inhibition” value was -20% and the Z score is 3.83.
As for `COc1cccc(C(=O)N2CCN(c3cc(-n4ccnc4C)ncn3)CC2)c1`, the “% Inhibition” value was -1% and the Z score is given as 0.19.
Regarding `C[C@@]1(C(=O)N2CC(c3cccc(Cl)c3)C2)CCCO1`, the “% Inhibition” value was -1% and the Z score worked out at 0.17.
For the compound `Cc1onc(-c2ccccc2)c1C(=O)Nc1cccc(NC(=O)c2c(-c3ccccc3)noc2C)c1`, the “% Inhibition” value is reported as -11% and the Z score is reported as 1.42.
With `CN1CC[C@@H]2CN(C(=O)CCC3CCCCC3)C[C@]2(C(=O)O)C1`, the “% Inhibition” value is on record as -3% and the Z score is given as 0.41.
For `CCOc1ccccc1CN(Cc1cnc(COC)nc1)C1CC1` the same measures were -10% and 1.52.
On to `Cc1nscc1C(=O)N[C@H](C(N)=O)C(C)(C)C`, for which the “% Inhibition” value is given as -5% and the Z score is on record as 0.51.
Regarding `CC(=O)Nc1nc(CS(=O)(=O)c2ccoc2C)cs1`, the “% Inhibition” value is on record as -4% and the Z score worked out at 0.48.
For `COc1ccc(CNC(=O)[C@H]2CCCN(c3cnn(C)c(=O)c3)C2)c(OC)c1` the same measures were 27% and -3.06.
For `Cc1nc(C)n(CC2CCCCN2C(C)C(=O)NCc2ccco2)n1` (stereo unspecified) the same measures were -8% and 0.85.
Consider `C[C@H](Oc1ccnc(N)c1)c1ccccc1`, for which the “% Inhibition” value is 3% and the Z score was -0.47.
Consider `CN1C(=O)c2ccc(-c3ccc(F)cc3F)cc2O[C@H]2CN(S(C)(=O)=O)C[C@H]21`, for which the “% Inhibition” value is -3% and the Z score amounted to 0.41.
For `CC(C)(C)C(=O)N1CCc2ccc(OCC(=O)NCc3ccccc3)cc2[C@@H]1c1ccc(F)cc1` the same measures were -12% and 2.3.
With `Cc1ccccc1OC[C@H](C)NC(=O)N(C)Cc1nccs1`, the “% Inhibition” value is on record as -14% and the Z score came out at 1.8.
Consider `O=C(O)CCc1cc2n(n1)CCCN(c1noc(-c3ccccc3)n1)C2`, for which the “% Inhibition” value is listed as 10% and the Z score is given as -1.85.
For the compound `Cn1nccc1-c1nc([C@@H]2CN(Cc3ccccc3)CCO2)no1`, the “% Inhibition” value is reported as -10% and the Z score is 0.97.
`CC(C)(C)NC(=O)NC[C@H]1CCCN1c1nccs1`: the “% Inhibition” value was -10% and the Z score was 1.84.
Regarding `O=C(Nc1nc2c(s1)CN(C(=O)c1cccs1)CC2)NC1CCCC1`, the “% Inhibition” value is listed as -6% and the Z score stood at 0.94.
As to `C[C@@H]1NC2(CCN(S(=O)(=O)c3ccc(Cl)cc3)CC2)N(CC2CC2)C1=O`, the “% Inhibition” value is on record as -15% and the Z score came to 1.66.
Turning to `COCCN(CC(=O)N1N=C(c2ccc(OC)cc2)C[C@H]1c1ccc2c(c1)OCO2)C(=O)C1CCC1`, the “% Inhibition” value is recorded as -5% and the Z score was determined as 1.03.
Regarding `COc1cccc(N2CCN(C(=O)c3coc(NC(=O)c4ccncc4)n3)CC2)c1`, the “% Inhibition” value turned out to be 6% and the Z score is -0.83.
For `COc1ccc([C@H]2NCCc3c2[nH]c2ccccc32)cc1CN1C(=O)c2ccccc2C1=O` the same measures were -3% and 0.43.
In the case of `Cc1ccc(S(=O)(=O)N2CCN(C(=O)c3ccccc3)[C@@H]2c2ccc(Cl)cc2Cl)cc1`, the “% Inhibition” value came out at 35% and the Z score is reported as -3.98.
`O=C1NCCC[C@@H]1NC(=O)[C@H]1CN(C(=O)c2cccc(F)c2)CCN1C(=O)c1cccs1`: the “% Inhibition” value is -10% and the Z score turned out to be 1.31.
Take `Cc1ccc([C@@]2(C(=O)NCc3cc(N4CCOCC4)ncn3)CC2(C)C)cc1`: the “% Inhibition” value is given as 2% and the Z score is on record as -0.42.
For `CC(C)(C)c1csc(CNC(=O)c2ccc(C#N)nc2)n1` the same measures were -4% and 0.49.
For the compound `CCn1nc(-c2nc3c([nH]2)CCCNC3=O)c2ccccc21`, the “% Inhibition” value is given as -3% and the Z score was 0.64.
With `COc1nc(C)cc(N2C3CCC2CC(N(C)C(=O)c2ccccc2)C3)n1` (stereo unspecified), the “% Inhibition” value is -3% and the Z score stood at 0.49.
Consider `CC(=O)C1(C(C)=O)[C@H](c2ccc(F)cc2)C1(C#N)C#N`, for which the “% Inhibition” value was determined as 41% and the Z score was -5.28.
`Cc1ccc(CNC(=O)c2ccc(-c3ccco3)[nH]c2=O)n1C`: the “% Inhibition” value is listed as -7% and the Z score is reported as 0.87.
For `CCC[C@H](NC(=O)c1cc(OC)ccn1)c1nccn1C` the same measures were -7% and 1.3.
